{
  "source": "the supplement of paper PMC11417369",
  "note": "The list shows a part of the results.",
  "data": [
    {"tested_on": "PfHDP1 homeodomain (GST-tagged)", "assay": "gcPBM binding intensity (ln(normalized median fluorescence intensity)); higher = stronger DNA binding", "outline": "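Alexa488 anti-GST antibody, scanned at 488 nm, detected GST-tagged P. falciparum DNA-binding domains that had been expressed in E. coli and incubated for 1 h on an Agilent 4 × 180k array. The array carried primer-extended double-stranded 36-bp intergenic genomic probes and negative controls. Binding intensity is the highest Masliner-normalised natural-log median intensity across replicate spots of either orientation of each probe.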", "values": [
      {"sequence": "ATATATTGAACCTATGCATGTAAAATATATGTAATA [TGCATGCA_site644]", "gcPBM binding intensity (ln)": 6.22},
      {"sequence": "TGTGTGGATATATGTATGCACTACCCTTTGGGTCAT [GTGCAC_site9506]", "gcPBM binding intensity (ln)": 7},
      {"sequence": "AAAAAAAAAAAATACACACACACATATAAATATGTA [CACACA_site6900]", "gcPBM binding intensity (ln)": 6.59},
      {"sequence": "GTTTATATATGCTTATAATTTTCAATTGTTTTACAA [TGCATGCA_negctrl_site384]", "gcPBM binding intensity (ln)": 6.63},
      {"sequence": "TTTTATGTTTTTTTTATAAATATTAAAATTCTATAT [CACACA_negctrl_site1477]", "gcPBM binding intensity (ln)": 6.15},
      {"sequence": "ATATATATATATAATTGTACATTTTTAACCTTAACA [XGTACX_site7910]", "gcPBM binding intensity (ln)": 8.98},
      {"sequence": "AATGTTAAAAATGAAAGTACATGGAATTTATTATTT [XGTACX_site4095]", "gcPBM binding intensity (ln)": 5.94},
      {"sequence": "ATATTGTTATATGTTTGTACATATTTTTTATATTTT [XGTACX_site6834]", "gcPBM binding intensity (ln)": 6.56},
      {"sequence": "TATAAATACATCCTATACTTCTCTTTTACAGTTTTA [CACACA_negctrl_site1283]", "gcPBM binding intensity (ln)": 6.51},
      {"sequence": "TGATTCAATTTATGCACACTAAAAATTAATTATATT [CACACA_site271]", "gcPBM binding intensity (ln)": 10.1},
      {"sequence": "TTTTTTTTTTATACATGTACTTAAAAGTAGCACCTT [XGTACX_site1855]", "gcPBM binding intensity (ln)": 6.52},
      {"sequence": "GACATTAATTATTTGACACACGACTGGGTGGTGATT [CACACA_site306]", "gcPBM binding intensity (ln)": 6.15},
      {"sequence": "TTTGTAAAAGGTCATACACACATATTCAAAAGAAGT [CACACA_site2947]", "gcPBM binding intensity (ln)": 6.85},
      {"sequence": "ATTATATATACAACAAGTACAAAAGAAAAATATTAT [XGTACX_site2914]", "gcPBM binding intensity (ln)": 6.92},
      {"sequence": "TATATATATACATAATGTACAAGAATTTGTATTGAA [XGTACX_site627]", "gcPBM binding intensity (ln)": 7.63},
      {"sequence": "TAAAAATAAAGAAAATGTACATAAATAAAAATAAAG [XGTACX_site2279]", "gcPBM binding intensity (ln)": 6.83},
      {"sequence": "ACAGGAGTATAACCTCGTACAAAATATATTTACCAT [XGTACX_site5805]", "gcPBM binding intensity (ln)": 6.79},
      {"sequence": "TCTTTAAAAAAAAAAAAAAAAAATTCCAAATAAATA [TGCATGCA_negctrl_site538]", "gcPBM binding intensity (ln)": 5.88},
      {"sequence": "CCTAGAAAAGCATATACACACGCGCAAAATAAAATT [CACACA_site4902]", "gcPBM binding intensity (ln)": 7.17},
      {"sequence": "TACACACATTACAGATGTACATAAAATTAAAAAAAT [XGTACX_site1804]", "gcPBM binding intensity (ln)": 6.82},
      {"sequence": "TCAAAAAATATATTTGCACACTCAAAAAAAAAAAAA [CACACA_site860]", "gcPBM binding intensity (ln)": 10.2},
      {"sequence": "TATATATATATAAATACATGCATATAATTAATCCAT [TGCATGCA_site400]", "gcPBM binding intensity (ln)": 8.75},
      {"sequence": "ATTCCAAAAAAATCAAGTACTAATTTATTATATTAC [XGTACX_site3920]", "gcPBM binding intensity (ln)": 6.2},
      {"sequence": "ATTTTTTTTTTTTTTTTAAGACAAACTCTTAATTTA [CACACA_negctrl_site1389]", "gcPBM binding intensity (ln)": 6.21},
      {"sequence": "TATTTTTTTAAGTGCAGTACACTTAATTTCCCCCAA [XGTACX_site7328]", "gcPBM binding intensity (ln)": 7.67},
      {"sequence": "AAAAAAAAAAAAAAAAAAATATATTATATATATATA [XGTACX_negctrl_site467]", "gcPBM binding intensity (ln)": 8.89},
      {"sequence": "TTTTTCACATTTCAGTGTACATTTTAATCATATATA [XGTACX_site915]", "gcPBM binding intensity (ln)": 6.57},
      {"sequence": "CGACAAAAATTTTACAGTACAGTATAAACCTTTTTA [XGTACX_site290]", "gcPBM binding intensity (ln)": 6.1},
      {"sequence": "CTTTTATATGTCTAATGTACGGGCAATATAAATTTG [XGTACX_site8323]", "gcPBM binding intensity (ln)": 6.21},
      {"sequence": "TATATAAATTTAATAACACACATATAAAAATGAATT [CACACA_site2366]", "gcPBM binding intensity (ln)": 6.77},
      {"sequence": "AAAAAGCAGGATTATACACACAAATATATATATGTT [CACACA_site1077]", "gcPBM binding intensity (ln)": 6.61},
      {"sequence": "ATATGTTTACGTAAATGTACACGTCAGTATATTTCT [XGTACX_site8199]", "gcPBM binding intensity (ln)": 6.7},
      {"sequence": "ATATATATATAACATTGTACACACAAAGAAATAATA [XGTACX_site6440]", "gcPBM binding intensity (ln)": 8.3},
      {"sequence": "AACTTGTATATATACACACACACACTATCTTTTTTT [CACACA_site8601]", "gcPBM binding intensity (ln)": 7.19},
      {"sequence": "TTTTATAATAAGTATGTAAAAATTATATATATATAT [CACACA_negctrl_site711]", "gcPBM binding intensity (ln)": 8.98},
      {"sequence": "ATTTTTTTTTTTTTTATTCCCCTTTCGAAAAAAACC [CACACA_negctrl_site1139]", "gcPBM binding intensity (ln)": 6.58},
      {"sequence": "CATATTGAATATTTAACACACATTTCGCTTAATTCA [CACACA_site2086]", "gcPBM binding intensity (ln)": 6.46},
      {"sequence": "GCAACAAAAAATCAGACATGCATTTTAAAATGAATA [TGCATGCA_site846]", "gcPBM binding intensity (ln)": 6.29},
      {"sequence": "ACACATTATAAAACTGTCGCTCATAAAGAAGAATGA [CACACA_negctrl_site999]", "gcPBM binding intensity (ln)": 6.67},
      {"sequence": "GAATGAATTGTTATTAGTACACATGTGAATTATAAA [XGTACX_site6790]", "gcPBM binding intensity (ln)": 6.45},
      {"sequence": "TATAAAAAAAAAATTTGTACATAATAATATATATAT [XGTACX_site2074]", "gcPBM binding intensity (ln)": 8.01},
      {"sequence": "TTATATATAAAATACTGTACATTTAATTGATGGTTT [XGTACX_site2073]", "gcPBM binding intensity (ln)": 6.3},
      {"sequence": "AGAAAAAAAAAAAGTACACACATATAATATATATAT [CACACA_site2973]", "gcPBM binding intensity (ln)": 8.2},
      {"sequence": "AGTTAATGAATAGGCACACATATATCTGTATAAATA [CACACA_site4448]", "gcPBM binding intensity (ln)": 6.49},
      {"sequence": "TCAAATAATAAGTATGCATGCTATATTTATATATAC [TGCATGCA_site920]", "gcPBM binding intensity (ln)": 6.37},
      {"sequence": "AAACGTACATAATACACACACATGTATACCTATAAA [CACACA_site7051]", "gcPBM binding intensity (ln)": 7.1},
      {"sequence": "TACATTTTACTTGTTACACACATATAAAATTAACCA [CACACA_site2922]", "gcPBM binding intensity (ln)": 6.59},
      {"sequence": "AAAAGGTATAGAAACACACACACGTGAATATAGTTT [CACACA_site1905]", "gcPBM binding intensity (ln)": 6.49},
      {"sequence": "ATATTTTATTTTAATACACACAAGTTATATAATCAC [CACACA_site780]", "gcPBM binding intensity (ln)": 6.63},
      {"sequence": "CACACCCACCAACACACACACAAAAAAAAAAAGAAA [CACACA_site500]", "gcPBM binding intensity (ln)": 6.72},
      {"sequence": "AAAAAAAACGGACACACACACATAAATATATATAAA [CACACA_site4260]", "gcPBM binding intensity (ln)": 6.9},
      {"sequence": "ACATATGTTTTATGTAGTACTTATTTATTATTATAT [XGTACX_site7528]", "gcPBM binding intensity (ln)": 6.45},
      {"sequence": "TACAAATTTATATAAAGTACAAAAAATAATAAAAAT [XGTACX_site7355]", "gcPBM binding intensity (ln)": 7.01},
      {"sequence": "AAAAAAAAAAAAAGTGCACACATAAAAATATGATCT [CACACA_site8090]", "gcPBM binding intensity (ln)": 8.92},
      {"sequence": "ATGAATAAATAGGTCACACACAAATATATATAAATA [CACACA_site2416]", "gcPBM binding intensity (ln)": 6.94},
      {"sequence": "TTGTTCGATATATGCACACAGTTTTGTTATTTTTCC [CACACA_site4972]", "gcPBM binding intensity (ln)": 9.91}
    ]}
  ]
}
